# The list shows a part of the results.
# B1: a L Fucosidase (Streptosporangium roseum), D2B1P1_STRRD (protein)
# chain: MRRKLLLVPAVGLLVIGSIFATQPVASADTPPVYEPTVESLNSHPVPQWFNDDKFGIFIHWGAYSVPAWGPRGSYAEWYGNYMNAGGSATNAHHKATYGQDFNYDAFLQQWKAEKFDPADWVKLFKDAGAKYFVLTSKHHEGMALWDSKSSGRDSVDLGPGRDLAKELFDAARKDEAKLKAGFYYSLYEWYNPAYTGRPATNPYTGAEIPYTGAPGGGDYVKDYMLPQMRELIDGYDPDIIWCDGQWEKPASYWNTAGVIADYYNKALNSGKEVAVANRCKIQSGNLDSPELDFQTPEYTVKPDIDPVKWESSRGIAHSYGYNQNEPEEDHLTSDQLVDSLVDIVSKNGNLLLDIGPKADGTIPEIQRQRLLDIGAWLKANGEAIYGTTYWNRAEEKGGPDDVRYTAKDATLYATALKWPGEQLTLGADLPVDHSTRITMLGSGARLSWSRDEQGRVVVNTPQEAGKHAYVFKIETPGVRSLLRTSSSLAKEIAPGRTISGELTVTNPGKRHTPATKLSLTVPQGWTATLGAPRVRPLGPGESVKVPISVSAPEGVAPAPYTLGLYQRTGRMGTTTALPLTVNRPNLSLGKPATQKSTGYDAPASRAVDGNTGGDWSAGSTTHTAEPEKQAWWQVDLGASARLDSVDVWNRLDCCADRLKDFWVMASDQPFTTDDLDQARTAPGVTAVHVGEQAGSPSKVKLPEGTRGRYVRIQLASPSNPLSLAEVQVRGSMARPNLSLGKPATQKSTGYDAPASRAVDGNTGGDWSAGSTTHTAEPEKQAWWQVDLGASARLDSVDVWNRLDCCADRLKDFWVMASDQPFTTDDLDQARTAPGVTAVHVGEQAGSPSKVKLPEGTRGRYVRIQLASPSNPLSLAEVQVRLEHHHHHHS
# Tests used:
# Assay in all cases: glycan array binding signal (z-score within array); higher = stronger binding
# Details in all cases: glycan notation: IUPAC condensed, linker removed
# [1] = target: Fuc(a1-2)Gal6S(b1-3)GlcNAc
# In short: (§1)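 The binding signal is a Z-score computed within each array. Data were drawn from 3228 arrays in the Consortium for Functional Glycomics database, restricted to those with a known protein sequence. Scores were averaged over arrays of the same protein sequence at different concentrations or buffers, and over linkers, and negative values can be taken as non-binding.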
# [2] = target: Fuc(a1-2)Gal6S(b1-3)GlcNAc6S
# In short: as §1
# Fuc(a1-2)Gal6S(b1-4)Glc = target: Fuc(a1-2)Gal6S(b1-4)Glc
# In short: as §1
# [3] = target: Fuc(a1-2)Gal6S(b1-4)Glc6S
# In short: as §1
# Fuc(a1-2)[Gal(a1-3)]Gal = target: Fuc(a1-2)[Gal(a1-3)]Gal
# In short: as §1
# [4] = target: Fuc(a1-2)[Gal(a1-3)]Gal(b1-3)GalNAc
# In short: as §1
# [5] = target: Fuc(a1-2)[Gal(a1-3)]Gal(b1-3)GalNAc(b1-3)Gal(a1-4)Gal(b1-4)Glc
# In short: as §1
# [6] = target: Fuc(a1-2)[Gal(a1-3)]Gal(b1-3)GlcNAc
# In short: as §1
# [7] = target: Fuc(a1-2)[Gal(a1-3)]Gal(b1-3)GlcNAc(b1-2)Man(a1-3)[Fuc(a1-2)[Gal(a1-3)]Gal(b1-3)GlcNAc(b1-2)Man(a1-6)]Man(b1-4)GlcNAc(b1-4)GlcNAc
# In short: as §1
# [8] = target: Fuc(a1-2)[Gal(a1-3)]Gal(b1-3)GlcNAc(b1-2)Man(a1-3)[Fuc(a1-2)[Gal(a1-3)]Gal(b1-3)GlcNAc(b1-2)Man(a1-6)]Man(b1-4)GlcNAc(b1-4)[Fuc(a1-6)]GlcNAc
# In short: as §1
# [9] = target: Fuc(a1-2)[Gal(a1-3)]Gal(b1-3)GlcNAc(b1-3)GalNAc
# In short: as §1
# [10] = target: Fuc(a1-2)[Gal(a1-3)]Gal(b1-3)GlcNAc(b1-6)GalNAc
# In short: as §1
# [11] = target: Fuc(a1-2)[Gal(a1-3)]Gal(b1-4)Glc
# In short: as §1
# [12] = target: Fuc(a1-2)[Gal(a1-3)]Gal(b1-4)GlcNAc
# In short: as §1
# [13] = target: Fuc(a1-2)[Gal(a1-3)]Gal(b1-4)GlcNAc(b1-2)Man
# In short: as §1
# [14] = target: Fuc(a1-2)[Gal(a1-3)]Gal(b1-4)GlcNAc(b1-2)Man(a1-3)[Fuc(a1-2)[Gal(a1-3)]Gal(b1-4)GlcNAc(b1-2)Man(a1-6)]Man(b1-4)GlcNAc(b1-4)GlcNAc
# In short: as §1
# [15] = target: Fuc(a1-2)[Gal(a1-3)]Gal(b1-4)GlcNAc(b1-2)Man(a1-3)[Fuc(a1-2)[Gal(a1-3)]Gal(b1-4)GlcNAc(b1-2)Man(a1-6)]Man(b1-4)GlcNAc(b1-4)[Fuc(a1-6)]GlcNAc
# In short: as §1
# [16] = target: Fuc(a1-2)[Gal(a1-3)]Gal(b1-4)GlcNAc(b1-3)GalNAc
# In short: as §1
# [17] = target: Fuc(a1-2)[Gal(a1-3)]Gal(b1-4)GlcNAc(b1-3)[Fuc(a1-2)[Gal(a1-3)]Gal(b1-4)GlcNAc(b1-6)]GalNAc
# In short: as §1
# [18] = target: Fuc(a1-2)[Gal(a1-3)]Gal(b1-4)GlcNAc(b1-6)GalNAc
# In short: as §1
# [19] = target: Fuc(a1-2)[Gal(a1-3)]Gal(b1-4)[Fuc(a1-3)]Glc
# In short: as §1
# [20] = target: Fuc(a1-2)[Gal(a1-3)]Gal(b1-4)[Fuc(a1-3)]GlcNAc
# In short: as §1
# [21] = target: Fuc(a1-2)[Gal(a1-3)]Gal(b1-4)[Fuc(a1-3)]GlcNAc(b1-3)GalNAc
# In short: as §1
# [22] = target: Fuc(a1-2)[Gal(a1-4)]Gal(b1-4)GlcNAc
# In short: as §1
# [23] = target: Fuc(a1-2)[GalNAc(a1-3)]Gal
# In short: as §1
# [24] = target: Fuc(a1-2)[GalNAc(a1-3)]Gal(b1-3)GalNAc(a1-3)[Fuc(a1-2)]Gal(b1-4)GlcNAc
# In short: as §1
# [25] = target: Fuc(a1-2)[GalNAc(a1-3)]Gal(b1-3)GalNAc(b1-3)Gal(a1-4)Gal(b1-4)Glc
# In short: as §1
# [26] = target: Fuc(a1-2)[GalNAc(a1-3)]Gal(b1-3)GlcNAc
# In short: as §1
# [27] = target: Fuc(a1-2)[GalNAc(a1-3)]Gal(b1-3)GlcNAc(b1-2)Man(a1-3)[Fuc(a1-2)[GalNAc(a1-3)]Gal(b1-3)GlcNAc(b1-2)Man(a1-6)]Man(b1-4)GlcNAc(b1-4)GlcNAc
# In short: as §1
# [28] = target: Fuc(a1-2)[GalNAc(a1-3)]Gal(b1-3)GlcNAc(b1-2)Man(a1-3)[Fuc(a1-2)[GalNAc(a1-3)]Gal(b1-3)GlcNAc(b1-2)Man(a1-6)]Man(b1-4)GlcNAc(b1-4)[Fuc(a1-6)]GlcNAc
# In short: as §1
# [29] = target: Fuc(a1-2)[GalNAc(a1-3)]Gal(b1-3)GlcNAc(b1-3)GalNAc
# In short: as §1
# [30] = target: Fuc(a1-2)[GalNAc(a1-3)]Gal(b1-3)GlcNAc(b1-6)GalNAc
# In short: as §1
# [31] = target: Fuc(a1-2)[GalNAc(a1-3)]Gal(b1-4)Glc
# In short: as §1
# [32] = target: Fuc(a1-2)[GalNAc(a1-3)]Gal(b1-4)GlcNAc
# In short: as §1
# [33] = target: Fuc(a1-2)[GalNAc(a1-3)]Gal(b1-4)GlcNAc(b1-2)Man
# In short: as §1
# [34] = target: Fuc(a1-2)[GalNAc(a1-3)]Gal(b1-4)GlcNAc(b1-2)Man(a1-3)[Fuc(a1-2)[GalNAc(a1-3)]Gal(b1-4)GlcNAc(b1-2)Man(a1-6)]Man(b1-4)GlcNAc(b1-4)GlcNAc
# In short: as §1
# [35] = target: Fuc(a1-2)[GalNAc(a1-3)]Gal(b1-4)GlcNAc(b1-2)Man(a1-3)[Fuc(a1-2)[GalNAc(a1-3)]Gal(b1-4)GlcNAc(b1-2)Man(a1-6)]Man(b1-4)GlcNAc(b1-4)[Fuc(a1-6)]GlcNAc
# In short: as §1
# [36] = target: Fuc(a1-2)[GalNAc(a1-3)]Gal(b1-4)GlcNAc(b1-3)Gal(b1-4)GlcNAc
# In short: as §1
# [37] = target: Fuc(a1-2)[GalNAc(a1-3)]Gal(b1-4)GlcNAc(b1-3)Gal(b1-4)GlcNAc(b1-3)Gal(b1-4)GlcNAc
# In short: as §1
# [38] = target: Fuc(a1-2)[GalNAc(a1-3)]Gal(b1-4)GlcNAc(b1-3)GalNAc
# In short: as §1
# [39] = target: Fuc(a1-2)[GalNAc(a1-3)]Gal(b1-4)GlcNAc(b1-3)[Fuc(a1-2)[GalNAc(a1-3)]Gal(b1-4)GlcNAc(b1-6)]GalNAc
# In short: as §1
# [40] = target: Fuc(a1-2)[GalNAc(a1-3)]Gal(b1-4)GlcNAc(b1-6)GalNAc
# In short: as §1
# [41] = target: Fuc(a1-2)[GalNAc(a1-3)]Gal(b1-4)[Fuc(a1-3)]GlcNAc
# In short: as §1
# [42] = target: Fuc(a1-2)[GalNAc(a1-3)]Gal(b1-4)[Fuc(a1-3)]GlcNAc(b1-3)GalNAc
# In short: as §1
# [43] = target: Fuc(a1-2)[GalNAc(a1-4)]Gal(b1-4)GlcNAc
# In short: as §1
binder,measurement,setting,value
B1,glycan array binding signal (z-score),[1],-0.338
same,glycan array binding signal (z-score),[2],2.52
same,glycan array binding signal (z-score),Fuc(a1-2)Gal6S(b1-4)Glc,1.78
same,glycan array binding signal (z-score),[3],0.33
same,glycan array binding signal (z-score),Fuc(a1-2)[Gal(a1-3)]Gal,3.18
same,glycan array binding signal (z-score),[4],-0.442
same,glycan array binding signal (z-score),[5],-0.339
same,glycan array binding signal (z-score),[6],-0.14
same,glycan array binding signal (z-score),[7],-0.246
same,glycan array binding signal (z-score),[8],0.743
same,glycan array binding signal (z-score),[9],0.499
same,glycan array binding signal (z-score),[10],0.683
same,glycan array binding signal (z-score),[11],1.78
same,glycan array binding signal (z-score),[12],-0.134
same,glycan array binding signal (z-score),[13],0.117
same,glycan array binding signal (z-score),[14],0.885
same,glycan array binding signal (z-score),[15],0.891
same,glycan array binding signal (z-score),[16],-0.361
same,glycan array binding signal (z-score),[17],1.11
same,glycan array binding signal (z-score),[18],-0.259
same,glycan array binding signal (z-score),[19],2.13
same,glycan array binding signal (z-score),[20],1.75
same,glycan array binding signal (z-score),[21],-0.075
same,glycan array binding signal (z-score),[22],4.37
same,glycan array binding signal (z-score),[23],3.07
same,glycan array binding signal (z-score),[24],-0.325
same,glycan array binding signal (z-score),[25],-0.376
same,glycan array binding signal (z-score),[26],0.379
same,glycan array binding signal (z-score),[27],-0.193
same,glycan array binding signal (z-score),[28],0.019
same,glycan array binding signal (z-score),[29],0.408
same,glycan array binding signal (z-score),[30],-0.487
same,glycan array binding signal (z-score),[31],2.75
same,glycan array binding signal (z-score),[32],0.006
same,glycan array binding signal (z-score),[33],1.44
same,glycan array binding signal (z-score),[34],-0.498
same,glycan array binding signal (z-score),[35],0.363
same,glycan array binding signal (z-score),[36],1.53
same,glycan array binding signal (z-score),[37],4.02
same,glycan array binding signal (z-score),[38],-0.162
same,glycan array binding signal (z-score),[39],0.654
same,glycan array binding signal (z-score),[40],-0.102
same,glycan array binding signal (z-score),[41],2.82
same,glycan array binding signal (z-score),[42],-0.182
same,glycan array binding signal (z-score),[43],0.416
